PubChem BioAssay AID2546 (National Center for Advancing Translational Sciences (NCATS), 2010)
Out of some 310,000 compounds screened, about 11,000 (3.5%) were called active. Inconclusive results, whose numbers are uncertain, are shown with a selection of clear calls. The call rests on the fitted dose curve; in most records, active means well fitted inhibition curve with a large enough effect; inconclusive means small, poorly fitted or top-dose-only effect, or effect the other way; inactive means flat fitted curve, though single readings scatter. No potency is given beside an inconclusive call; the fits are too rough.

assay: VP16 counterscreen qHTS for inhibitors of ROR gamma transcriptional activity; conditions: Drosophila S2 Gal4-VP16 UAS-luciferase, luminescence, 20 h; series mostly up to 53.6 µM;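 further: Gal4-VP16 expression switched on by copper sulfate through the metallothionein promoter; nearly all actives have a fitted effect of over 50% in size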
Potency means the concentration at half of the fitted maximal effect; tags describe the fitted curve by direction and shape.

Row | Structure (SMILES) | Potency
1 | COCCn1nnnc1C(c1cccs1)N1CCN2CCCC2C1 (centres undefined) | inconclusive [activator, partial curve, poor fit]
2 | C=CCNC(=S)NNC(=O)c1ccccc1 | inconclusive [inhibitor, single point]
3 | COc1ccc(-n2c3c(cc(C(=O)N4CCC(C)CC4)c2=O)C(=O)CC(C)(C)C3)cc1 | inconclusive [inhibitor, single point]
4 | Cc1ccc(Cl)cc1NC(=O)c1ccccc1OCC(=O)N1CCOCC1 | inactive
5 | C=Cc1ccccc1C=C | inactive
6 | COc1cc(/C=N\n2nnnc2N)ccc1OCc1ccc(F)cc1 | inconclusive [inhibitor, partial curve, poor fit]
7 | CCN(C(=O)COC(=O)/C=C/c1cnc2ccccc2n1)c1ccccc1 | inactive
8 | C=CCC(C)(Nc1ccccc1)C(=O)OCC (centres undefined) | inactive
9 | COc1cc(NC(=O)c2cccs2)c(OC)cc1NC(=O)CCC(=O)Nc1ccc2ncccc2c1 | inconclusive [inhibitor, single point]
10 | COc1cccc(C=NCCNC(=O)c2nonc2N)c1O | inactive
11 | COc1ccc(NC(=S)NC2CCCCC2)cn1 | inconclusive [inhibitor, single point]
12 | c1ccc(-c2nnc(SCc3nc4ccccc4[nH]3)n2Cc2ccco2)cc1 | inconclusive [inhibitor, single point]
13 | COc1ccccc1-c1cn[nH]c1-c1ccc(OCc2ccccc2)cc1O | inconclusive [inhibitor, single point]
14 | CCOc1ccc(-c2nc(CSCC(=O)NC3CC3)c(C)o2)cc1 | inconclusive [inhibitor, single point]
15 | COc1cc(OC)cc(C(=O)NNC(=O)Cc2ccc(OC)c(S(=O)(=O)N3CCOCC3)c2)c1 | inactive
16 | C(=N\Nc1nc2ccccc2[nH]1)/c1cccc2nccnc12 | active: 5.62 µM
17 | COC(=O)/C(=C\C(=O)c1ccccc1)Nc1cccc(C(F)(F)F)c1 | inconclusive [inhibitor, partial curve]
18 | CC(C)(C)NC(=S)NC(C)(C)C | inconclusive [inhibitor, single point]
19 | Cc1c(Cl)sn(-c2ccc(Cl)cc2)c1=O | active: 2.82 µM
20 | O=C(c1cccc(C(F)(F)F)c1)N1CCC(O)(CS(=O)(=O)Cc2ccccc2)CC1 | inactive
21 | CCC1=NN(C(=O)c2ccccc2Br)C(O)(c2ccc(Br)cc2)C1 (centres undefined) | inconclusive [inhibitor, single point]
22 | COC(=O)c1cc([N+](=O)[O-])c(-n2cncn2)c([N+](=O)[O-])c1 | inactive
23 | CCCCNS(=O)(=O)c1ccc(NC(=O)C(Sc2ccccc2)c2ccccc2)cc1 (centres undefined) | inconclusive [inhibitor, single point]
24 | CC(=O)/C(=N\Nc1cccc(Cl)c1)Sc1cccc2cccnc12 | inconclusive [inhibitor, partial curve]
25 | CC(=O)c1ccc(-n2nnnc2SCC(=O)Nc2sc(C)c(C)c2C#N)cc1 | inconclusive [activator, single point]

Row | Structure (SMILES) | Potency
26 | Cc1ccc(C2CC(c3ccc(Cl)cc3)=NNC2=O)cc1 (centres undefined) | active: 14.1 µM
27 | O=S1(=O)CCO[C@H]2Cc3ccccc3[C@H]2N1Cc1ccccc1 | inactive
28 | COc1ccc(S(=O)(=O)Nc2ccc3c(c2)n(C)c(=O)n3C)cc1F | inconclusive [inhibitor, single point]
29 | COc1cc(OC)cc(-c2cc(N3C(=O)Nc4ccccc4N3O)n[nH]2)c1 | inconclusive [activator, single point]
30 | S=C(Nc1ccccc1)Nc1nc2ccccc2n1CCOc1ccc(Cl)cc1 | active: 1.78 µM
31 | COc1ccccc1OCC(=O)O/N=C(\N)c1ccccn1 | inconclusive [inhibitor, partial curve]
32 | CC(C(=O)O)n1nc(-c2ccccc2)c2ccccc21 (centres undefined) | inactive
33 | CCN(Cc1ccccc1)C(c1cccc(C#N)c1)c1nnnn1C(C)(C)C (centres undefined) | inconclusive [inhibitor, single point]
34 | CN(C)c1ccc(C(=O)c2ccc(O)cc2O)cc1 | inconclusive [activator, partial curve]
35 | CCN(Cc1ccc(OC)c(F)c1)C(=O)CCl | inactive
36 | CCc1nnc2c(NCCc3ccc(OC)c(OC)c3)nc3ccccc3n12 | inactive
37 | COc1cc(-c2ccc(N=Nc3ccc4c(S(=O)(=O)O)cc(S(=O)(=O)O)c(N)c4c3O)c(OC)c2)ccc1N=Nc1ccc2c(S(=O)(=O)O)cc(S(=O)(=O)O)c(N)c2c1O | inconclusive [inhibitor, partial curve]
38 | S=c1nc2ccccc2c2nc(-c3cccnc3)[nH]n12 | inconclusive [inhibitor, partial curve]
39 | O=C(N/N=C/c1cc([N+](=O)[O-])ccc1O)c1ccncc1 | inactive
40 | CCCNC(=O)NC(=O)CN1CCCC1c1ccc2c(c1)OCCO2 (centres undefined) | inactive
41 | CC1CCC(C(C)C)C(OC(=O)C[n+]2cc(-c3ccc(Cl)cc3)n3c2CCC3)C1 (centres undefined) | inconclusive [inhibitor, single point]
42 | CCCc1nc2ccccc2c(=O)n1/N=C/c1c(C)[nH]n(-c2ccc(C)cc2)c1=O | inconclusive [inhibitor, single point]
43 | Cc1ccccc1OCC(=O)N/N=C1\SCC(=O)N1Cc1ccccc1 | inconclusive [inhibitor, single point]
44 | CNC(=S)Nc1cc(OC)ccc1OC | inconclusive [inhibitor, single point]
45 | N#C/C(=C\Nc1ccc2cn[nH]c2c1)c1nc(-c2ccccc2)cs1 | inconclusive [inhibitor, partial curve]
46 | COc1ccc2[nH]cc(C(=O)CNc3nc(C)cs3)c2c1 | inactive
47 | Cn1c(=NC(=O)c2ccco2)sc2cccc(F)c21 | inconclusive [inhibitor, single point]
48 | CC1(C)CC(=O)c2cnc(N)nc2C1 | inconclusive [inhibitor, single point]
49 | COC(=O)[C@@]1(Cc2ccccc2)[C@H]2c3cc(C(=O)N(C)C)n(CCN4CNCC4=O)c3C[C@H]2CN1C(=O)c1ccccc1 | inactive
50 | CCCNC(=O)COC(=O)c1cccnc1Nc1ccccc1F | inconclusive [activator, single point]

Row | Structure (SMILES) | Potency
51 | COc1ccc(/C=N/NC(=O)Cn2cc(C(F)(F)F)ccc2=O)cc1 | inconclusive [inhibitor, partial curve, poor fit]
52 | COc1cc(/C=N/NC(=S)Nc2cccc(C(=O)O)c2)cc(OC)c1OC | inconclusive [inhibitor, single point]
53 | CC(C)c1ccc2c(c1)C1(NN=C(c3ccccc3)S1)C(=O)N2 (centres undefined) | active: 5.01 µM
54 | CC(=O)c1c(NC(=O)c2ccccc2)[nH]c(-c2ccccc2)nc1=S | active: 8.91 µM
55 | COc1ccc(C[C@H](N)C(=O)N[C@@H]2[C@H](O)[C@H](n3cnc4c(N(C)C)ncnc43)O[C@@H]2CO)cc1 | inconclusive [inhibitor, single point]
56 | O=C(N/N=C\c1ccc(Cl)s1)c1cccs1 | active: 5.62 µM
57 | COc1ccc(N2C(=O)CC(Sc3nc(C)cc(C)n3)C2=O)cc1OC (centres undefined) | inconclusive [inhibitor, single point]
58 | CCC(=O)N1c2ccc(S(=O)(=O)N(CCO)Cc3ccccc3)cc2CC1C (centres undefined) | inconclusive [inhibitor, single point]
59 | CC(=O)OCC1OC(c2ccccc2)C(OC(C)=O)C(OC(C)=O)C1OC(C)=O (centres undefined) | inactive
60 | CCCN1C2CCCC1CC(NC(=S)Nc1cccc(C)c1C)C2 (centres undefined) | inactive
61 | Cc1ccsc1C(=O)NNC(=O)C1CCCCC1C(=O)O (centres undefined) | inconclusive [activator, full curve, poor fit]
62 | O=c1[nH]c(SCc2ccccc2Cl)nc2c1cnn2-c1ccccc1 | inconclusive [inhibitor, single point]
63 | Cc1ccc(C(=O)CC(=O)COc2ccc(Cl)cc2C)cc1 | active: 4.47 µM
64 | CC/C(=N\NC(=O)C(N)=O)c1ccccc1O | inconclusive [inhibitor, single point]
65 | O=C(CC(=O)c1ccccc1O)c1cccc(F)c1 | inconclusive [inhibitor, single point]
66 | Cc1[nH]c2ccccc2c1C(=O)CNc1nccs1 | inconclusive [inhibitor, partial curve]
67 | Cc1ccc(N=Cc2cc(Cc3ccccc3Cl)cc([N+](=O)[O-])c2O)c(O)c1 | active: 4.47 µM
68 | CCn1cc(CN2CCN(CCc3ccccc3)C(CCO)C2)c(C)n1 (centres undefined) | inactive
69 | CCCCC(=O)N(Cc1ccc(F)cc1)C1CCS(=O)(=O)C1 (centres undefined) | inactive
70 | O=c1cc(O)c(-c2cccc(Cl)c2)c(Cl)[nH]1 | inactive
71 | Cc1ccccc1NC(=S)N1CCN(c2ccccc2)CC1 | active: 20 µM
72 | C(=N\n1cnnc1)/c1cccc(OCCOc2ccccc2)c1 | inconclusive [inhibitor, full curve, poor fit]
73 | O=C(c1ccc(NS(=O)(=O)c2ccccc2)cc1)N1CCCC1 | inactive
74 | Cc1cccn2c(=O)c3cc(C(=O)NCCc4ccccc4)c(=N)n(CCCn4ccnc4)c3nc12 | inconclusive [inhibitor, single point]
